# T1: human CD39 on the cell surface (human, UniProt P49961 1-510)
# T1 construct: whole, on cells; also called hCD39; NTPDase 1
# T1 sequence (looked up): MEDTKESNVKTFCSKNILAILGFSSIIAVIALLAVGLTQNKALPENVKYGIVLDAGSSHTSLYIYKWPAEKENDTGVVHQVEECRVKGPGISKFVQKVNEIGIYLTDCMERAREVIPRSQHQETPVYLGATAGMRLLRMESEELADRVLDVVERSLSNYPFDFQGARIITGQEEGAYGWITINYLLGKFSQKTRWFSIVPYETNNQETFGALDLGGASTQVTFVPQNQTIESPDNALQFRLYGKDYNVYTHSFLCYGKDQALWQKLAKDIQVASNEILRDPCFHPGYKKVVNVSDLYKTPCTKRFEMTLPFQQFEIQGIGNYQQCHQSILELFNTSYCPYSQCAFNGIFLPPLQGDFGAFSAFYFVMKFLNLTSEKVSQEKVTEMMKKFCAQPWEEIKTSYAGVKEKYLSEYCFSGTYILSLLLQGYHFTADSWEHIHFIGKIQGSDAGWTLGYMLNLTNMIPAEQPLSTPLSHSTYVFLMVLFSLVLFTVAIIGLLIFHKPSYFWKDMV
# B1: humanized antibody F03-9 (antibody, human IgG4 S228P, kappa)
# heavy: QVQLVQSGAEVKKPGASVKVSCKASGYTFTNYWMYWVRQRPGRGLEWIGRIAPSSGATKYNEKFKNRATLTVDTSISTAYMELSRLRSDDTAVYYCARSGIYYDYDWFFDVWGQGTTVTVSSASTKGPSVFPLAPCSRSTSESTAALGCLVKDYFPEPVTVSWNSGALTSGVHTFPAVLQSSGLYSLSSVVTVPSSSLGTKTYTCNVDHKPSNTKVDKRV[human IgG4 Fc with S228P (EU numbers) omitted here]
# light: DIQMTQSPSSLSASVGDRVTITCKASQDINKYIGWYQQKPGKAPKLLIHYTSTLQPGVPSRFSGSGSGTDFTFTISSLQPEDIATYYCLQYHALLFTFGQGTKLEIKRTVAAPSVFIFPPSDEQLKSGTASVVCLLNNFYPREAKVQWKVDNALQSGNSQESVTEQDSKDSTYSLSSTLTLSKADYEKHKVYACEVTHQGLSSPVTKSFNRGEC
# notes: Human IgG4 (S228P) and human kappa constant regions
# B2: humanized antibody F03-10 (antibody, human IgG4 S228P, kappa)
# heavy: QVQLVQSGAEVKKPGASVKVSCKASGYTFTNYWMYWVRQRPGRGLEWIGRIAPSSGATKYNEKFKNRATLTVDTSISTAYMELSRLRSDDTAVYYCARSGIYYDYDWFFDVSGQGTTVTVSSASTKGPSVFPLAPCSRSTSESTAALGCLVKDYFPEPVTVSWNSGALTSGVHTFPAVLQSSGLYSLSSVVTVPSSSLGTKTYTCNVDHKPSNTKVDKRV[human IgG4 Fc with S228P (EU numbers) omitted here]
# light: DIQMTQSPSSLSASVGDRVTITCKASQDINKYIGWYQQKPGKAPKLLIHYTSTLQPGVPSRFSGSGSGTDFTFTISSLQPEDIATYYCLQYHALLFTFGQGTKLEIKRTVAAPSVFIFPPSDEQLKSGTASVVCLLNNFYPREAKVQWKVDNALQSGNSQESVTEQDSKDSTYSLSSTLTLSKADYEKHKVYACEVTHQGLSSPVTKSFNRGEC
# notes: as for B1
# Legend:
# [1] = molecular target: T1, human CD39 on the cell surface; assay: FACS on SK-MEL-28 cells (natural human CD39)
# [2] = molecular target: T1, human CD39 on the cell surface; assay: cell-based or functional assay
Binder,EC50 [1] [nM],Enzymatic activity inhibition (EC50 nM) [2] [nM]
B1,1.01,0.04
B2,1.48,0.02

# Source: patent US20250011455A1 (HANGZHOU BANGSHUN PHARMACEUTICAL, published 2025)
